Results: PubChem BioAssay AID1347073 (National Center for Advancing Translational Sciences (NCATS), 2019)
Out of some 45,000 compounds screened, about 200 (0.44%) were called active. Another 7% or so got no clear call; they are omitted. Calls come from the whole dose curve; as a rule, active = well fitted activation curve with a large enough effect; inconclusive = small, poorly fitted or top-dose-only effect; inactive = no such curve, though single readings can be large or run the other way. Some of the results follow.

Assay: qHTS of TDP-43 Inhibitors: NCGC Sytravon Library Screen; note: 0% is about no effect; nearly all actives have a fitted effect of over 55% in size
Conditions: yeast TDP-43 toxicity rescue, BacTiter-Glo growth, 24 h; series mostly up to 46.1 µM; growth rescue (activation): at the top concentration
Summary of the method: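 TDP-43-expressing yeast, pregrown in raffinose, seeded at OD600 0.02 in galactose medium with compound for 24 hr at 30 deg C. Growth read by BacTiter-Glo luminescence, so rescue of toxicity appears as activation.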

| SMILES | growth rescue (activation) | Potency |
| --- | --- | --- |
| NS(=O)(=O)c1ccc(CCNC(=O)CSc2ccc(Cl)cc2)cc1 | inactive: 0.49% | – |
| CCN=c1scc(-c2cccs2)n1/N=C/c1cc(OC)ccc1O | inactive: -15.8% | – |
| O=C1N/C(=N/N=C/c2ccc(O)cc2)SC1Cc1ccccc1 (stereo not drawn) | inactive: -5.42% | – |
| CCn1c(SCc2cccc(C(=O)O)c2)nnc1-c1ccccc1 | inactive: 2.53% | – |
| CC(=O)c1ccc(NC(=O)CSc2nc(C)cc(C)c2C(N)=O)cc1 | inactive: -4.61% | – |
| COc1ccccc1CNCc1cc(OC)c(OC)c(OC)c1 | inactive: -3.03% | – |
| COc1cc(CNCCCCO)ccc1OCc1ccccc1F | inactive: 6.98% | – |
| O=C(Nc1ccc(CN2CCCCC2)cc1)c1c(F)c(F)c(F)c(F)c1F | inactive: 0.039% | – |
| COc1ccc(NC(=O)CN(C)C2=NS(=O)(=O)c3ccccc32)cc1Cl | inactive: -4.03% | – |
| O=C(NCc1ccncc1)C(=O)Nc1ccc2c(c1)OCO2 | inactive: 4.61% | – |
| COc1ccccc1C(=O)NC(=S)NNC(=O)c1sc2ccccc2c1Cl | inactive: 29.8% | – |
| CCN(C(=O)CSc1nnc(Nc2ccc(OC)cc2)s1)C1CCS(=O)(=O)C1 (stereo not drawn) | inactive: 3.59% | – |
| CC(=O)Nc1ccc(/C=N/NS(=O)(=O)c2cc(C)ccc2C)cc1 | inactive: 9.38% | – |
| COc1ccccc1CNC(=O)CN1C(=O)NC(C)(c2ccc(C(C)(C)C)cc2)C1=O (stereo not drawn) | inactive: -14.7% | – |
| O=C(C1CC1)N1CCCC(c2ccc(Cl)cc2)=N1 | inactive: 17.2% | – |
| C=CCOc1ccc(CN(C)CC(O)COc2cccc3ccccc23)cc1 (stereo not drawn) | inactive: -35.8% | – |
| CN(CCC#N)Cc1cc(=O)oc2ccc3ccccc3c12 | inactive: 2.77% | – |
| O=C(NC1CCN(S(=O)(=O)c2ccc(F)cc2)CC1)c1ccco1 | inactive: -2.41% | – |
| CCOC(=O)C1=C(CNCc2ccccc2Cl)NC(=O)NC1c1ccc2c(c1)OCO2 (stereo not drawn) | inactive: 7.55% | – |
| CC(C)(C)C(=O)Nc1ccc(-c2cn3cccnc3n2)cc1 | inactive: 6.29% | – |
| Oc1cccc2c(NC(=S)Nc3ccc(OC(F)F)cc3)cccc12 | inactive: 5.03% | – |
| CCn1c(C(=O)NCc2ccccc2Cl)cc2sc(Cl)cc21 | inactive: 5.59% | – |

| SMILES | growth rescue (activation) | Potency |
| --- | --- | --- |
| CCOc1cc(CNCc2cccnc2)ccc1OCC(=O)NC(C)(C)C | inactive: -10.6% | – |
| CC(c1ccon1)N(C)Cc1cn(Cc2ccccc2)nc1-c1ccc2c(c1)OCO2 (stereo not drawn) | inactive: -19.4% | – |
| CCn1c(SCc2nc3cc(OC)c(OC)cc3c(=O)[nH]2)nc2ccccc21 | inactive: 8.35% | – |
| CC1CCCCC12NC(=O)N(CC(=O)OCc1c(F)cccc1Cl)C2=O (stereo not drawn) | inactive: 21.8% | – |
| Nc1ccc(S(=O)(=O)NC2(C(F)(F)F)NC(=O)N(c3ccccc3Cl)C2=O)cc1 (stereo not drawn) | inactive: 2.2% | – |
| O=C(NCCOc1ccccc1)[C@@H]1CCCN1C(=O)c1cccs1 | inactive: -2.74% | – |
| O=C(O)/C=C\C(=O)Nc1ccc(Oc2ccc(Br)cc2)cc1 | inactive: 7.88% | – |
| CCOc1ccc2ccccc2c1/C=N/NC(=O)CNC(=O)c1ccccc1O | inactive: 10.5% | – |
| CN(C)/N=C/c1ccc(Sc2ccccc2[N+](=O)[O-])o1 | inactive: 5.1% | – |
| CS(=O)(=O)Nc1ccc(C(=O)NCCc2ccccc2)cc1 | inactive: -10.8% | – |
| Cc1ccccc1CN(C)CC(=O)Nc1c(C)cccc1C(C)C | inactive: 1.69% | – |
| CCn1cc([C@@H]2C[C@H]3CN(Cc4cccc(Cl)c4)C(=O)[C@]34CCCN24)c(C)n1 | inactive: -7.18% | – |
| Cn1cc(Cl)c(C(=O)OCC(=O)Nc2cccc(Cl)c2)n1 | inactive: 0.0281% | – |
| COc1cc(OC)c(OC)cc1/C=C1\Oc2cc(OS(C)(=O)=O)ccc2C1=O | inactive: -5.36% | – |
| CC(=O)c1ccc(C(=O)N2CCC(CO)(Cc3cccc(C(F)(F)F)c3)CC2)cc1 | inactive: 13.8% | – |
| O=C(N/C(=C/c1ccco1)C(=O)N1CCCCCC1)c1ccccc1 | inactive: 5.16% | – |
| O=C(C[n+]1cccc2ccccc21)c1ccccc1 | inactive: 19.8% | – |
| O=C(CC(=O)NCc1ccc(Cl)cc1)NCc1ccc(Cl)cc1 | inactive: 15.4% | – |
| CN(CC1CCOCC1)C(=O)CC1C(=O)NCCN1C/C=C/c1ccccc1 (stereo not drawn) | inactive: -1.55% | – |
| Cc1ccc(NC(=O)CNCc2ccccc2)cc1Br | inactive: -9.5% | – |
| CCn1c(SCCN2CCCCC2)nc2c1c(=O)n(C)c(=O)n2C | inactive: 0.763% | – |
| CSc1nnc(CNS(=O)(=O)c2ccc(F)cc2)n1C | inactive: 25.9% | – |

| SMILES | growth rescue (activation) | Potency |
| --- | --- | --- |
| O=C(COC(=O)c1cc(=O)[nH]c2ccccc12)NC1CCCC1 | inactive: -3.66% | – |
| CC1(C(=O)NS(=O)(=O)c2cccc(C#N)c2)CCN1C(=O)c1ccccc1 (stereo not drawn) | inactive: 13.7% | – |
| CCOC(=O)C1CCN(c2ccc(C(=O)O)cc2[N+](=O)[O-])CC1 | inactive: 18.7% | – |
| Cc1ccc2cc3cc(C(=O)NCCC(C)C)oc3nc2c1 | inactive: 21.4% | – |
| O=C(NC(=S)Nc1ccccc1C(=O)O)c1ccc2ccccc2c1 | inactive: 26.5% | – |
| COc1ccc(NC(=O)CN2C(=O)NC3(CCCC3)C2=O)cc1OC | inactive: -13.8% | – |
| COc1ccccc1-c1ccc2c(c1)C(C)(Cc1ccc(Cl)c(Cl)c1)C(=O)N2 (stereo not drawn) | inactive: -15.8% | – |
| CSc1nc(Oc2ccc(F)cc2)c2ccccc2n1 | inactive: 15.3% | – |
| O=C(Nc1ccc(Cl)c(S(=O)(=O)N2CCOCC2)c1)c1cc2ccccc2oc1=O | inactive: 17.4% | – |
| CCCn1c(SCC(=O)N2c3ccccc3Sc3ccccc32)nc2ccccc21 | inactive: 22.7% | – |
| CSc1cccc(NC(=S)N(CCN(C)C)C(C)c2ccccn2)c1 (stereo not drawn) | inactive: -0.447% | – |
| NC(c1csc(NC(=O)Nc2ccccc2Oc2ccccc2)n1)c1ccccc1Cl (stereo not drawn) | inactive: 15.7% | – |
| O=C(Nc1ccccc1F)C1CCN(S(=O)(=O)c2cccc3nonc23)CC1 | inactive: 7.75% | – |
| COCCn1c(Cc2cccn2C)nnc1SCC(=O)Nc1nccs1 | inactive: -0.404% | – |
| Cc1ccc(C(=O)COC(=O)CCC(=O)Nc2ccccc2Cl)cc1[N+](=O)[O-] | inactive: 10.4% | – |
| CC(=O)c1cccc(NC(=O)CN2C(=O)NC(C)(C)C2=O)c1 | inactive: 20.1% | – |
| Cc1ccc(OC(C)C(=O)N2CC(=O)Nc3ccccc32)c(C)c1 (stereo not drawn) | inactive: -0.412% | – |
| Cc1ccccc1C(=O)c1cccn1CC(=O)NCc1ccc(Cl)cc1 | – | inactive |
| COc1ccc(S(=O)(=O)N2CCCCC2)cc1NC(=O)CCNC(=O)c1ccc(Cl)cc1 | inactive: 12.5% | – |
| COc1ccc(Cl)cc1-n1c(C)cc(C(=O)OCC(=O)N2CC(=O)Nc3ccccc32)c1C | inactive: 2.37% | – |
| O=C(OCC(=O)N1CCC(Cc2ccccc2)CC1)c1ccccc1O | inactive: -3.83% | – |
| O=C(Nc1ccc2c(c1)OCO2)N1CCC(CO)(CC2CCCCO2)CC1 (stereo not drawn) | inactive: 6.25% | – |

| SMILES | growth rescue (activation) | Potency |
| --- | --- | --- |
| CC(=O)Nc1ccc(NC(=O)COc2cccc3c2OC(C)(C)C3)cc1 | inactive: 4.69% | – |
| COc1ccc(-n2c(SCC(=O)NCc3cccs3)nnc2-c2ccoc2C)cc1 | inactive: 8.52% | – |
| O=C(CN1CCCc2ccccc21)Nc1cccc(S(=O)(=O)N2CCOCC2)c1 | inactive: 12.2% | – |
| COc1ccc(CCc2nnc(CCC(=O)NCc3cc(C(C)C)no3)o2)cc1 | inactive: 6.41% | – |
| O=C(O)C(Cc1c[nH]c2ccccc12)NS(=O)(=O)c1ccc(Br)cc1 (stereo not drawn) | inactive: 11.4% | – |
| Cc1cc(NC(=O)CCC(=O)N(CC(=O)NC2CCCC2)c2ccc(F)c(Cl)c2)no1 | inactive: -5.03% | – |
| Cc1ccc(N(CC(=O)NC(C)(C)C)C(=O)CNC(=O)c2cccs2)c(C)c1 | inactive: 0.551% | – |
| Cc1c(Br)c(C(F)(F)F)nn1CC(=O)N(C)C1CCCCC1 | inactive: 9.06% | – |
| O=C(O)CC(C(=O)Nc1ccc(F)cc1)C1CCCO1 (stereo not drawn) | inactive: -19.4% | – |
| CCOC(=O)C1(C)/C(=N/Nc2ccccc2OC)C(=O)C(=O)N1c1ccccc1 (stereo not drawn) | inactive: 23.5% | – |
| O=C(O)CCC(=O)N1N=C(c2ccc(Br)cc2)CC1c1ccc(Br)cc1 (stereo not drawn) | inactive: 11.5% | – |
| O=C(O)c1cc(NC(=O)c2ccc3c(c2)C(=O)N(Cc2ccccc2)C3=O)cc(C(=O)O)c1 | inactive: 12.1% | – |
| S=c1sc(SCCOc2ccccc2)nn1-c1ccccc1 | inactive: 25.8% | – |
| CCOC(=O)C1CCN(C(=O)c2ccccc2NC(=O)c2ccc(Cl)cc2)CC1 | inactive: 1.45% | – |
| Cc1ccc(C(NC(=O)C2CCCCC2)c2c(O)ccc3ccccc23)cc1 (stereo not drawn) | inactive: 18.2% | – |
| O=C(O)c1ccc(N2CCOCC2)c(N2C(=O)C3C4C=CC(C4)C3C2=O)c1 (stereo not drawn) | inactive: 11.8% | – |
| CCOc1ncccc1C(=O)OCc1ccc(C(=O)OC)cc1 | inactive: 25.8% | – |
| O=C1NC(NS(=O)(=O)c2ccc(Cl)cc2)(C(F)(F)F)C(=O)N1c1ccccc1 (stereo not drawn) | inactive: 7.02% | – |
| C#CC[N+](C)(C)CCCCCCCCCC | inactive: 7.37% | – |
| Cc1[nH]n(-c2ccc(Cl)c(Cl)c2)c(=O)c1CCO | inactive: 11.4% | – |
| CSc1nc(C)cc(Oc2ccc(=O)[nH]n2)n1 | inactive: 7.86% | – |
| CCN(CC)S(=O)(=O)c1cccc(NC(=O)COc2ncnc3sccc23)c1 | inactive: 1.28% | – |

| SMILES | growth rescue (activation) | Potency |
| --- | --- | --- |
| CCN1C(=O)/C(=C\C=C\c2ccccc2[N+](=O)[O-])SC1=S | inactive: 1.11% | – |
| O=C(Cc1ccc(Br)cc1)N/N=C/c1ccc(-c2cccc(C(=O)O)c2)o1 | inactive: 4.76% | – |
| COc1cc(C(=O)NCC(=O)N/N=C/c2ccc(-c3ccc([N+](=O)[O-])cc3)o2)cc(OC)c1OC | inactive: 10% | – |
| O=S(=O)(c1ccccc1F)N1CCN(c2nc3ccccc3s2)CC1 | inactive: 9.34% | – |
| CCN(CC)S(=O)(=O)c1ccc(N2CCN(c3ccccc3O)CC2)nc1 | inactive: 21.7% | – |
| Cc1nnc(NC(=O)C(c2ccccc2)c2ccccc2)s1 | inactive: 2.99% | – |
| CCCNC(=O)CSCc1nc(-c2ccc(SC)cc2)oc1C | inactive: 27.7% | – |
| O=C(COc1ccccc1Cl)N1CCc2ccccc21 | inactive: 17.2% | – |
| O=C(O)c1ccc(-n2c(-c3cc(C4CC4)[nH]n3)n[nH]c2=S)cc1 | inactive: 18.6% | – |
| Cc1cccc(C)c1NC(=S)N(Cc1ccco1)C1CCN(C(C)C)CC1 | inactive: 14.7% | – |
| NC(=S)N/N=C/c1ccc([N+](=O)[O-])cc1 | inactive: 16.7% | – |
| COc1ccc(S(=O)(=O)N2CCCC(C(=O)N3CCOCC3)C2)cc1OC (stereo not drawn) | inactive: 10.3% | – |
| CC(C)CN1CCNC(=O)C1CC(=O)N(C)CC1CCOCC1 (stereo not drawn) | inactive: -15.8% | – |
| CCc1ccccc1NC(=O)CNC(=O)c1ccc(OCc2cn3ccccc3n2)cc1 | inactive: -12.5% | – |
| COc1ccccc1CNC(=O)CN1C(=O)NC2(CCC(C)CC2)C1=O (stereo not drawn) | inactive: -0.951% | – |
| COc1ccc(C2CCCN2C(=S)Nc2cccc(Cl)c2C)cc1OC (stereo not drawn) | inactive: 3.7% | – |
| CN(C)c1ccc(C(C(=O)NCC2CCCO2)N(Cc2ccco2)C(=O)c2snc(C(N)=O)c2N)cc1 (stereo not drawn) | inactive: 8.33% | – |
| CN(C)c1cccc(C(=O)NCC2CCCO2)c1 (stereo not drawn) | inactive: -16.3% | – |
| CC(C(=O)Nc1ccc2c(c1)OCO2)N1CCN(C)CC1 (stereo not drawn) | inactive: 21.3% | – |
| CC(C)n1nc(C(=O)OCn2nnc3ccccc3c2=O)c2ccccc2c1=O | inactive: -7.41% | – |
